# Measured values reported in the supplement of paper PMC8728848.
# This is one part of the list.
# How the values were obtained:
# Assay in all cases: glycan array binding signal (z-score within array); higher = stronger binding
# Conditions in all cases: glycan notation: IUPAC condensed, linker removed
# [1] = target: Gal(b1-4)Glc6S
# How it was run: (§1)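 Glycan array data came from 3228 arrays in the Consortium for Functional Glycomics database, and only arrays with an available protein sequence were kept. Glycan names were put into IUPAC-condensed notation, and columns mapping to the same glycan were averaged. The binding signal is a within-array Z-score, averaged across arrays of one protein sequence run at different concentrations or buffers and across linkers. A negative Z-score can be read as non-binding.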
# [2] = target: Gal(b1-4)GlcNAc
# How it was run: as §1
# [3] = target: Gal(b1-4)GlcNAc(a1-6)Gal(b1-4)GlcNAc
# How it was run: as §1
# [4] = target: Gal(b1-4)GlcNAc(b1-2)Man
# How it was run: as §1
# [5] = target: Gal(b1-4)GlcNAc(b1-2)Man(a1-3)Man(b1-4)GlcNAc(b1-4)GlcNAc
# How it was run: as §1
# [6] = target: Gal(b1-4)GlcNAc(b1-2)Man(a1-3)[Gal(b1-4)GlcNAc(b1-2)Man(a1-6)]Man(b1-4)GlcNAc(b1-4)GlcNAc
# How it was run: as §1
# [7] = target: Gal(b1-4)GlcNAc(b1-2)Man(a1-3)[Gal(b1-4)GlcNAc(b1-2)Man(a1-6)]Man(b1-4)GlcNAc(b1-4)[Fuc(a1-6)]GlcNAc
# How it was run: as §1
# [8] = target: Gal(b1-4)GlcNAc(b1-2)Man(a1-3)[Gal(b1-4)GlcNAc(b1-2)Man(a1-6)][Gal(b1-4)GlcNAc(b1-4)]Man(b1-4)GlcNAc(b1-4)[Fuc(a1-6)]GlcNAc
# How it was run: as §1
# [9] = target: Gal(b1-4)GlcNAc(b1-2)Man(a1-3)[Gal(b1-4)GlcNAc(b1-2)Man(a1-6)][GlcNAc(b1-4)]Man(b1-4)GlcNAc(b1-4)[Fuc(a1-6)]GlcNAc
# How it was run: as §1
# [10] = target: Gal(b1-4)GlcNAc(b1-2)Man(a1-3)[GlcNAc(b1-2)Man(a1-6)]Man(b1-4)GlcNAc(b1-4)GlcNAc
# How it was run: as §1
# [11] = target: Gal(b1-4)GlcNAc(b1-2)Man(a1-3)[GlcNAc(b1-4)][Gal(b1-4)GlcNAc(b1-2)Man(a1-6)]Man(b1-4)GlcNAc(b1-4)GlcNAc
# How it was run: as §1
# [12] = target: Gal(b1-4)GlcNAc(b1-2)Man(a1-3)[Man(a1-6)]Man(b1-4)GlcNAc(b1-4)GlcNAc
# How it was run: as §1
# [13] = target: Gal(b1-4)GlcNAc(b1-2)Man(a1-6)Man(b1-4)GlcNAc(b1-4)GlcNAc
# How it was run: as §1
# [14] = target: Gal(b1-4)GlcNAc(b1-2)Man(a1-6)[GlcNAc(b1-2)Man(a1-3)]Man(b1-4)GlcNAc(b1-4)GlcNAc
# How it was run: as §1
# [15] = target: Gal(b1-4)GlcNAc(b1-2)Man(a1-6)[Man(a1-3)]Man(b1-4)GlcNAc(b1-4)GlcNAc
# How it was run: as §1
# [16] = target: Gal(b1-4)GlcNAc(b1-2)[Gal(b1-4)GlcNAc(b1-4)]Man(a1-3)[Gal(b1-4)GlcNAc(b1-2)Man(a1-6)]Man(b1-4)GlcNAc(b1-4)GlcNAc
# How it was run: as §1
# [17] = target: Gal(b1-4)GlcNAc(b1-2)[Gal(b1-4)GlcNAc(b1-4)]Man(a1-3)[Gal(b1-4)GlcNAc(b1-2)[Gal(b1-4)GlcNAc(b1-6)]Man(a1-6)]Man(b1-4)GlcNAc(b1-4)GlcNAc
# How it was run: as §1
# [18] = target: Gal(b1-4)GlcNAc(b1-2)[Gal(b1-4)GlcNAc(b1-4)]Man(a1-3)[GlcNAc(b1-4)][Gal(b1-4)GlcNAc(b1-2)Man(a1-6)]Man(b1-4)GlcNAc(b1-4)GlcNAc
# How it was run: as §1
# [19] = target: Gal(b1-4)GlcNAc(b1-2)[Gal(b1-4)GlcNAc(b1-4)]Man(a1-3)[GlcNAc(b1-4)][Gal(b1-4)GlcNAc(b1-2)[Gal(b1-4)GlcNAc(b1-6)]Man(a1-6)]Man(b1-4)GlcNAc(b1-4)GlcNAc
# How it was run: as §1
# [20] = target: Gal(b1-4)GlcNAc(b1-2)[Gal(b1-4)GlcNAc(b1-6)]Man(a1-6)[Gal(b1-4)GlcNAc(b1-2)Man(a1-3)]Man(b1-4)GlcNAc(b1-4)GlcNAc
# How it was run: as §1
# [21] = target: Gal(b1-4)GlcNAc(b1-2)[Gal(b1-4)GlcNAc(b1-6)]Man(a1-6)[Gal(b1-4)GlcNAc(b1-2)Man(a1-3)]Man(b1-4)GlcNAc(b1-4)[Fuc(a1-6)]GlcNAc
# How it was run: as §1
# [22] = target: Gal(b1-4)GlcNAc(b1-2)[Gal(b1-4)GlcNAc(b1-6)]Man(a1-6)[GlcNAc(b1-4)][Gal(b1-4)GlcNAc(b1-2)Man(a1-3)]Man(b1-4)GlcNAc(b1-4)GlcNAc
# How it was run: as §1
# [23] = target: Gal(b1-4)GlcNAc(b1-2)[Gal(b1-4)GlcNAc(b1-6)]Man(a1-6)[GlcNAc(b1-4)][Gal(b1-4)GlcNAc(b1-2)[Gal(b1-4)GlcNAc(b1-4)]Man(a1-3)]Man(b1-4)GlcNAc(b1-4)[Fuc(a1-6)]GlcNAc
# How it was run: as §1
# [24] = target: Gal(b1-4)GlcNAc(b1-3)Gal(b1-3)GalNAc
# How it was run: as §1
# [25] = target: Gal(b1-4)GlcNAc(b1-3)Gal(b1-3)GlcNAc
# How it was run: as §1
# [26] = target: Gal(b1-4)GlcNAc(b1-3)Gal(b1-4)Glc
# How it was run: as §1
# [27] = target: Gal(b1-4)GlcNAc(b1-3)Gal(b1-4)GlcNAc
# How it was run: as §1
# [28] = target: Gal(b1-4)GlcNAc(b1-3)Gal(b1-4)GlcNAc(b1-2)Man(a1-3)[Gal(b1-4)GlcNAc(b1-3)Gal(b1-4)GlcNAc(b1-2)Man(a1-6)]Man(b1-4)GlcNAc(b1-4)GlcNAc
# How it was run: as §1
# [29] = target: Gal(b1-4)GlcNAc(b1-3)Gal(b1-4)GlcNAc(b1-2)Man(a1-3)[Gal(b1-4)GlcNAc(b1-3)Gal(b1-4)GlcNAc(b1-2)Man(a1-6)]Man(b1-4)GlcNAc(b1-4)[Fuc(a1-6)]GlcNAc
# How it was run: as §1
# [30] = target: Gal(b1-4)GlcNAc(b1-3)Gal(b1-4)GlcNAc(b1-2)[Gal(b1-4)GlcNAc(b1-3)Gal(b1-4)GlcNAc(b1-6)]Man(a1-6)[Gal(b1-4)GlcNAc(b1-3)Gal(b1-4)GlcNAc(b1-2)Man(a1-3)]Man(b1-4)GlcNAc(b1-4)GlcNAc
# How it was run: as §1
# [31] = target: Gal(b1-4)GlcNAc(b1-3)Gal(b1-4)GlcNAc(b1-2)[Gal(b1-4)GlcNAc(b1-3)Gal(b1-4)GlcNAc(b1-6)]Man(a1-6)[Gal(b1-4)GlcNAc(b1-3)Gal(b1-4)GlcNAc(b1-2)Man(a1-3)]Man(b1-4)GlcNAc(b1-4)[Fuc(a1-6)]GlcNAc
# How it was run: as §1
# [32] = target: Gal(b1-4)GlcNAc(b1-3)Gal(b1-4)GlcNAc(b1-3)Gal(b1-4)GlcNAc
# How it was run: as §1
# [33] = target: Gal(b1-4)GlcNAc(b1-3)Gal(b1-4)GlcNAc(b1-3)Gal(b1-4)GlcNAc(b1-2)Man(a1-3)[Gal(b1-4)GlcNAc(b1-3)Gal(b1-4)GlcNAc(b1-3)Gal(b1-4)GlcNAc(b1-2)Man(a1-6)]Man(b1-4)GlcNAc(b1-4)GlcNAc
# How it was run: as §1
# [34] = target: Gal(b1-4)GlcNAc(b1-3)Gal(b1-4)GlcNAc(b1-3)Gal(b1-4)GlcNAc(b1-2)Man(a1-3)[Gal(b1-4)GlcNAc(b1-3)Gal(b1-4)GlcNAc(b1-3)Gal(b1-4)GlcNAc(b1-2)Man(a1-6)]Man(b1-4)GlcNAc(b1-4)[Fuc(a1-6)]GlcNAc
# How it was run: as §1
# [35] = target: Gal(b1-4)GlcNAc(b1-3)Gal(b1-4)GlcNAc(b1-3)Gal(b1-4)GlcNAc(b1-2)[Gal(b1-4)GlcNAc(b1-3)Gal(b1-4)GlcNAc(b1-3)Gal(b1-4)GlcNAc(b1-6)]Man(a1-6)[Gal(b1-4)GlcNAc(b1-3)Gal(b1-4)GlcNAc(b1-3)Gal(b1-4)GlcNAc(b1-2)Man(a1-3)]Man(b1-4)GlcNAc(b1-4)[Fuc(a1-6)]GlcNAc
# How it was run: as §1
# [36] = target: Gal(b1-4)GlcNAc(b1-3)Gal(b1-4)GlcNAc(b1-3)Gal(b1-4)GlcNAc(b1-3)Gal(b1-4)GlcNAc(b1-2)Man(a1-3)[Gal(b1-4)GlcNAc(b1-3)Gal(b1-4)GlcNAc(b1-3)Gal(b1-4)GlcNAc(b1-3)Gal(b1-4)GlcNAc(b1-2)Man(a1-6)]Man(b1-4)GlcNAc(b1-4)GlcNAc
# How it was run: as §1
# [37] = target: Gal(b1-4)GlcNAc(b1-3)Gal(b1-4)GlcNAc(b1-3)Gal(b1-4)GlcNAc(b1-3)Gal(b1-4)GlcNAc(b1-2)Man(a1-3)[Gal(b1-4)GlcNAc(b1-3)Gal(b1-4)GlcNAc(b1-3)Gal(b1-4)GlcNAc(b1-3)Gal(b1-4)GlcNAc(b1-2)Man(a1-6)]Man(b1-4)GlcNAc(b1-4)[Fuc(a1-6)]GlcNAc
# How it was run: as §1
# [38] = target: Gal(b1-4)GlcNAc(b1-3)Gal(b1-4)GlcNAc(b1-3)Gal(b1-4)GlcNAc(b1-3)Gal(b1-4)GlcNAc(b1-2)[Gal(b1-4)GlcNAc(b1-3)Gal(b1-4)GlcNAc(b1-3)Gal(b1-4)GlcNAc(b1-3)Gal(b1-4)GlcNAc(b1-6)]Man(a1-6)[Gal(b1-4)GlcNAc(b1-3)Gal(b1-4)GlcNAc(b1-3)Gal(b1-4)GlcNAc(b1-3)Gal(b1-4)GlcNAc(b1-2)Man(a1-3)]Man(b1-4)GlcNAc(b1-4)[Fuc(a1-6)]GlcNAc
# How it was run: as §1
binder,measurement,setting,value
Epa12 (Candida glabrata) (protein) MGSSHHHHHHSSGLVPRGSHMLEPDNSLQIFDSFLSNPSKYPLGCSPKITNPKKGLSMELYSYPYRKKGSHPCWDPAYLDPNFPRVGYKKNKLIARVDGVSGDINFNFHPKRQCTPIADYLPPNFNYNEPITTTNFTMLLYGYFKPKVTGLHTFDISADDLLFMNFGAGNAFDCCRRDSTADTFGNYVAWAIWGRRIVRNKLTVRLDKGIYYPLRLFFNNRDYYGQMRLTFKTEHGSERITDFSDYFFSVDDTSEGCPGLITYESECADVKSSTVLETDYITIQAEKE,glycan array binding signal (z-score),[1],3.51
same,glycan array binding signal (z-score),[2],0.202
same,glycan array binding signal (z-score),[3],3.61
same,glycan array binding signal (z-score),[4],-0.38
same,glycan array binding signal (z-score),[5],-0.259
same,glycan array binding signal (z-score),[6],0.425
same,glycan array binding signal (z-score),[7],-0.317
same,glycan array binding signal (z-score),[8],-0.41
same,glycan array binding signal (z-score),[9],-0.351
same,glycan array binding signal (z-score),[10],-0.245
same,glycan array binding signal (z-score),[11],-0.225
same,glycan array binding signal (z-score),[12],-0.214
same,glycan array binding signal (z-score),[13],-0.206
same,glycan array binding signal (z-score),[14],-0.119
same,glycan array binding signal (z-score),[15],-0.149
same,glycan array binding signal (z-score),[16],-0.082
same,glycan array binding signal (z-score),[17],-0.043
same,glycan array binding signal (z-score),[18],-0.266
same,glycan array binding signal (z-score),[19],0.047
same,glycan array binding signal (z-score),[20],0.014
same,glycan array binding signal (z-score),[21],-0.123
same,glycan array binding signal (z-score),[22],-0.134
same,glycan array binding signal (z-score),[23],-0.107
same,glycan array binding signal (z-score),[24],0.086
same,glycan array binding signal (z-score),[25],-0.14
same,glycan array binding signal (z-score),[26],0.229
same,glycan array binding signal (z-score),[27],-0.196
same,glycan array binding signal (z-score),[28],-0.232
same,glycan array binding signal (z-score),[29],-0.152
same,glycan array binding signal (z-score),[30],0.204
same,glycan array binding signal (z-score),[31],-0.076
same,glycan array binding signal (z-score),[32],-0.353
same,glycan array binding signal (z-score),[33],-0.291
same,glycan array binding signal (z-score),[34],-0.298
same,glycan array binding signal (z-score),[35],-0.152
same,glycan array binding signal (z-score),[36],-0.347
same,glycan array binding signal (z-score),[37],-0.234
same,glycan array binding signal (z-score),[38],-0.201
